Laboratory results taken from the supplement of paper PMC4967469.
By IC50 is meant the dose at which the fit gives 50% viability; fits outside the tested doses are given as limits. AUC sums up the same curve from the lowest dose to the 256-fold higher top dose; the more sensitive the line, the further below 1. For some of these results: Any top dose called inferred was derived from the fitted curves, not read from the paper.

Assays:
Assay in all cases: Viability of human cancer cell lines after 72 h of drug (GDSC screen)
SGC0946 = compound: CC(C)N(CCCNC(=O)Nc1ccc(C(C)(C)C)cc1)C[C@H]1O[C@@H](n2cc(Br)c3c(N)ncnc32)[C@H](O)[C@@H]1O [SGC0946]; conditions: top dose 0.5 µM; top dose inferred
Method: (§1)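 Human cancer cell lines in 384-well plates, medium with 10% serum, drug for 72 h over a 256-fold dose range (nine 2-fold or five 4-fold steps up to the top dose). Adherent lines were fixed and stained with the nucleic acid dye Syto60, suspension lines read with resazurin; signal relative to control wells, capped at 0 and 100%. One two-parameter sigmoid per drug and line, fitted in a mixed model over all curves with the slope shared within a line.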

Bryostatin 1 = compound: CCC/C=C/C=C/C(=O)O[C@H]1/C(=C/C(=O)OC)C[C@H]2C[C@H]([C@@H](C)O)OC(=O)C[C@H](O)C[C@@H]3C[C@H](OC(C)=O)C(C)(C)[C@](O)(C[C@@H]4C/C(=C/C(=O)OC)C[C@H](/C=C/C(C)(C)[C@]1(O)O2)O4)O3 [Bryostatin 1]; conditions: top dose 0.008 µM; top dose inferred
Method: as §1

GW-2580 = compound: COc1ccc(COc2ccc(Cc3cnc(N)nc3N)cc2OC)cc1 [GW-2580]; conditions: top dose 20 µM; top dose inferred
Method: as §1

VX-680 = compound: Cc1cc(Nc2cc(N3CCN(C)CC3)nc(Sc3ccc(NC(=O)C4CC4)cc3)n2)n[nH]1 [VX-680]; conditions: top dose 2 µM
Method: as §1

Lenalidomide = compound: Nc1cccc2c1CN(C1CCC(=O)NC1=O)C2=O [Lenalidomide]; conditions: top dose 5 µM; top dose inferred
Method: as §1

Cell Line: NCI-H2135 (non-small cell lung carcinoma, adherent)
- AUC (SGC0946): 0.99
- IC50 (SGC0946): > 500 nM
- AUC (Bryostatin 1): 0.991
- IC50 (Bryostatin 1): > 8 nM
- AUC (GW-2580): 0.99
- IC50 (GW-2580): > 20000 nM
- AUC (VX-680): 0.98
- IC50 (VX-680): > 2000 nM
- AUC (Lenalidomide): 0.989
- IC50 (Lenalidomide): > 5000 nM

Cell Line: NCI-SNU-5 (stomach, suspension)
- AUC (SGC0946): 0.988
- IC50 (SGC0946): > 500 nM
- AUC (Bryostatin 1): 0.989
- IC50 (Bryostatin 1): > 8 nM
- AUC (GW-2580): 0.989
- IC50 (GW-2580): > 20000 nM
- AUC (VX-680): 0.976
- IC50 (VX-680): > 2000 nM
- AUC (Lenalidomide): 0.978
- IC50 (Lenalidomide): > 5000 nM

Cell Line: NOMO-1 (acute myeloid leukaemia, suspension)
- AUC (SGC0946): 0.98
- IC50 (SGC0946): > 500 nM
- AUC (Bryostatin 1): 0.982
- IC50 (Bryostatin 1): > 8 nM
- AUC (GW-2580): 0.982
- IC50 (GW-2580): > 20000 nM
- AUC (VX-680): 0.83
- IC50 (VX-680): 1500 nM
- AUC (Lenalidomide): 0.961
- IC50 (Lenalidomide): > 5000 nM

Cell Line: NTERA-2 cl.D1 (testis, adherent)
- AUC (SGC0946): 0.984
- IC50 (SGC0946): > 500 nM
- AUC (Bryostatin 1): 0.968
- IC50 (Bryostatin 1): > 8 nM
- AUC (GW-2580): 0.985
- IC50 (GW-2580): > 20000 nM
- AUC (VX-680): 0.237
- IC50 (VX-680): 21.8 nM
- AUC (Lenalidomide): 0.985
- IC50 (Lenalidomide): > 5000 nM

Cell Line: OCI-M1 (acute myeloid leukaemia, suspension)
- AUC (SGC0946): 0.995
- IC50 (SGC0946): > 500 nM
- AUC (Bryostatin 1): 0.994
- IC50 (Bryostatin 1): > 8 nM
- AUC (GW-2580): 0.99
- IC50 (GW-2580): > 20000 nM
- AUC (VX-680): 0.9
- IC50 (VX-680): 1480 nM
- AUC (Lenalidomide): 0.994
- IC50 (Lenalidomide): > 5000 nM

Cell Line: OCUB-M (breast, adherent)
- AUC (SGC0946): 0.989
- IC50 (SGC0946): > 500 nM
- AUC (Bryostatin 1): 0.99
- IC50 (Bryostatin 1): > 8 nM
- AUC (GW-2580): 0.908
- IC50 (GW-2580): > 20000 nM
- AUC (VX-680): 0.393
- IC50 (VX-680): 66.6 nM
- AUC (Lenalidomide): 0.99
- IC50 (Lenalidomide): > 5000 nM

Cell Line: OMC-1 (cervix, adherent)
- AUC (SGC0946): 0.986
- IC50 (SGC0946): > 500 nM
- AUC (Bryostatin 1): 0.956
- IC50 (Bryostatin 1): > 8 nM
- AUC (GW-2580): 0.97
- IC50 (GW-2580): > 20000 nM
- AUC (VX-680): 0.988
- IC50 (VX-680): > 2000 nM
- AUC (Lenalidomide): 0.988
- IC50 (Lenalidomide): > 5000 nM

Cell Line: OS-RC-2 (kidney, adherent)
- AUC (SGC0946): 0.975
- IC50 (SGC0946): > 500 nM
- AUC (Bryostatin 1): 0.893
- IC50 (Bryostatin 1): > 8 nM
- AUC (GW-2580): 0.975
- IC50 (GW-2580): > 20000 nM
- AUC (VX-680): 0.858
- IC50 (VX-680): > 2000 nM
- AUC (Lenalidomide): 0.955
- IC50 (Lenalidomide): > 5000 nM

Cell Line: OVCAR-4 (ovary, adherent)
- AUC (SGC0946): 0.972
- IC50 (SGC0946): > 500 nM
- AUC (Bryostatin 1): 0.963
- IC50 (Bryostatin 1): > 8 nM
- AUC (GW-2580): 0.971
- IC50 (GW-2580): > 20000 nM
- AUC (VX-680): 0.75
- IC50 (VX-680): 961 nM
- AUC (Lenalidomide): 0.972
- IC50 (Lenalidomide): > 5000 nM

Cell Line: P32-ISH (Burkitt lymphoma, suspension)
- AUC (SGC0946): 0.995
- IC50 (SGC0946): > 500 nM
- AUC (Bryostatin 1): 0.935
- IC50 (Bryostatin 1): 8 nM
- AUC (GW-2580): 0.995
- IC50 (GW-2580): > 20000 nM
- AUC (VX-680): 0.282
- IC50 (VX-680): 36.3 nM
- AUC (Lenalidomide): 0.953
- IC50 (Lenalidomide): > 5000 nM

Cell Line: PL-21 (acute myeloid leukaemia, suspension)
- AUC (SGC0946): 0.98
- IC50 (SGC0946): > 500 nM
- AUC (Bryostatin 1): 0.97
- IC50 (Bryostatin 1): > 8 nM
- AUC (GW-2580): 0.972
- IC50 (GW-2580): > 20000 nM
- AUC (VX-680): 0.918
- IC50 (VX-680): > 2000 nM
- AUC (Lenalidomide): 0.966
- IC50 (Lenalidomide): > 5000 nM

Cell Line: PSN1 (pancreas, adherent)
- AUC (SGC0946): 0.991
- IC50 (SGC0946): > 500 nM
- AUC (Bryostatin 1): 0.946
- IC50 (Bryostatin 1): > 8 nM
- AUC (GW-2580): 0.977
- IC50 (GW-2580): > 20000 nM
- AUC (VX-680): 0.492
- IC50 (VX-680): 119 nM
- AUC (Lenalidomide): 0.982
- IC50 (Lenalidomide): > 5000 nM

Cell Line: RKO (large intestine, adherent)
- AUC (SGC0946): 0.987
- IC50 (SGC0946): > 500 nM
- AUC (Bryostatin 1): 0.971
- IC50 (Bryostatin 1): > 8 nM
- AUC (GW-2580): 0.988
- IC50 (GW-2580): > 20000 nM
- AUC (VX-680): 0.569
- IC50 (VX-680): 190 nM
- AUC (Lenalidomide): 0.987
- IC50 (Lenalidomide): > 5000 nM

Cell Line: RL (B-cell lymphoma, suspension)
- AUC (SGC0946): 0.976
- IC50 (SGC0946): > 500 nM
- AUC (Bryostatin 1): 0.987
- IC50 (Bryostatin 1): > 8 nM
- AUC (GW-2580): 0.982
- IC50 (GW-2580): > 20000 nM
- AUC (VX-680): 0.99
- IC50 (VX-680): > 2000 nM
- AUC (Lenalidomide): 0.99
- IC50 (Lenalidomide): > 5000 nM

Cell Line: RPMI-6666 (Hodgkin lymphoma, suspension)
- AUC (SGC0946): 0.974
- IC50 (SGC0946): > 500 nM
- AUC (Bryostatin 1): 0.976
- IC50 (Bryostatin 1): > 8 nM
- AUC (GW-2580): 0.963
- IC50 (GW-2580): > 20000 nM
- AUC (VX-680): 0.795
- IC50 (VX-680): 1150 nM
- AUC (Lenalidomide): 0.975
- IC50 (Lenalidomide): > 5000 nM

Cell Line: RPMI-8866 (chronic myeloid leukaemia, suspension)
- AUC (SGC0946): 0.987
- IC50 (SGC0946): > 500 nM
- AUC (Bryostatin 1): 0.984
- IC50 (Bryostatin 1): > 8 nM
- AUC (GW-2580): 0.98
- IC50 (GW-2580): > 20000 nM
- AUC (VX-680): 0.988
- IC50 (VX-680): > 2000 nM
- AUC (Lenalidomide): 0.898
- IC50 (Lenalidomide): > 5000 nM

Cell Line: SF126 (glioma, adherent)
- AUC (SGC0946): 0.973
- IC50 (SGC0946): > 500 nM
- AUC (Bryostatin 1): 0.974
- IC50 (Bryostatin 1): > 8 nM
- AUC (GW-2580): 0.985
- IC50 (GW-2580): > 20000 nM
- AUC (VX-680): 0.775
- IC50 (VX-680): 832 nM
- AUC (Lenalidomide): 0.98
- IC50 (Lenalidomide): > 5000 nM

Cell Line: SF539 (glioma, adherent)
- AUC (SGC0946): 0.989
- IC50 (SGC0946): > 500 nM
- AUC (Bryostatin 1): 0.987
- IC50 (Bryostatin 1): > 8 nM
- AUC (GW-2580): 0.99
- IC50 (GW-2580): > 20000 nM
- AUC (VX-680): 0.958
- IC50 (VX-680): > 2000 nM
- AUC (Lenalidomide): 0.99
- IC50 (Lenalidomide): > 5000 nM

Cell Line: SJSA-1 (bone, adherent)
- AUC (SGC0946): 0.982
- IC50 (SGC0946): > 500 nM
- AUC (Bryostatin 1): 0.97
- IC50 (Bryostatin 1): > 8 nM
- AUC (GW-2580): 0.981
- IC50 (GW-2580): > 20000 nM
- AUC (VX-680): 0.915
- IC50 (VX-680): > 2000 nM
- AUC (Lenalidomide): 0.984
- IC50 (Lenalidomide): > 5000 nM
